The test addresses T1, TROP2 on DLD1 colon cancer cells (UniProt P09758 27-323, limits assumed).
T1 construct: whole, on cells
T1 sequence (looked up): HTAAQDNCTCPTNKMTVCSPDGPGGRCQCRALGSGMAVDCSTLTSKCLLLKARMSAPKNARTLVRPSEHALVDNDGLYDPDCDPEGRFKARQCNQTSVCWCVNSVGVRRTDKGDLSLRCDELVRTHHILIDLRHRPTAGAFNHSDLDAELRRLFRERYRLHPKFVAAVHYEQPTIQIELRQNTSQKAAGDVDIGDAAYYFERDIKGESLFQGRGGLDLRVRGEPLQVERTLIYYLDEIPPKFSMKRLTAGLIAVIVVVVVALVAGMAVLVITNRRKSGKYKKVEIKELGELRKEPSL
Kind of test: flow cytofluorimetry on AGS cells (TROP2 on AGS); bar = MFI, marker = percent positive; concentration not given for this panel.

B1: bispecific recombinant antigen binding molecule 13-14 (NKG2DL x CD3) (Fc fusion)
chain 1: QIPLTESYCGPCPKNWICYKNNCYQFFDESKNWYESQASCMSQNASLLKVYSKEDQDLLKLVKSYHWMGLVHIPTNGSWQWEDGSILSPNLLTIIEMQKGDCALYASSFKGYIENCSTPNTYICMQRTVPAGGGGGTHTCPPCPAPEAAGGPSVFLFPPKPKDTLMISRTPEVTCVVVDVSHEDPEVKFNWYVDGVEVHNAKTKPREEQYNSTYRVVSVLTVLHQDWLNGKEYKCKVSNKALPAPIEKTISKAKGQPREPQVCTLPPSRDELTKNQVSLSCAVKGFYPSDIAVEWESNGQPENNYKTTPPVLDSDGSFFLVSKLTVDKSRWQQGNVFSCSVMHEALHNHYTQKSLSLSPGK
chain 2: EVQLVESGGGLVQPGGSLKLSCAASGFTFNTYAMNWVRQAPGKGLEWVGRIRSKYNNYATYYADSVKGRFTISRDDSKNTLYLQMNSLKTEDTAVYYCVRHGNFGNSYVSWFAYWGQGTLVTVSSGGGGSGGGGSGGGGSQAVVTQEPSLTVSPGGTVTLTCGSSTGAVTTSNYANWVQQKPGQAFRGLIGGTNKRAPGTPARFSGSLLGGKAALTLSGAQPEDEAEYYCALWYSNLWVFGGGTKLTVLASGGGGGPLTESYCGPCPKNWICYKNNCYQFFDESKNWYESQASCMSQNASLLKVYSKEDQDLLKLVKSYHWMGLVHIPTNGSWQWEDGSILSPNLLTIIEMQKGDCALYASSFKGYIENCSTPNTYICMQRTVPAGGG[gap - human IgG1 Fc with changes and a few adjoining residues]
notes: 13: NKG2D-linker-tIg hinge-G1Fc; 14: h3scFv-NKG2D-linker-tIg hinge-G1Fc
Turning to B1, the binding result is recorded as “no binding”.

These data come from patent US20240400705A1 (SYNERGY IMT, published 2024).
